According to PubChem BioAssay AID686979 (National Center for Advancing Translational Sciences (NCATS), 2013):
“And” between values parts separate entries of the source, which are not always exact repeats. Equal entries are not always repeated. The campaign covered roughly 420,000 compounds. About 50,000 (12%) were called active. The inconclusive results got no clear call from the source; some entries with a clear call stand among them for comparison. Calls come from the whole dose curve; as a rule, active = well fitted inhibition curve with a large enough effect; inconclusive = small, poorly fitted or top-dose-only effect; inactive = flat fitted curve, though single readings scatter. Potencies of inconclusive entries are doubtful fits and often do not repeat.

Assay: qHTS for Inhibitors of human tyrosyl-DNA phosphodiesterase 1 (TDP1): qHTS in cells in presence of CPT; note: nearly all actives have a fitted effect of over 55% in size
Settings: chicken DT40 Tdp1-/-;hTDP1 cells + 20 nM CPT, ATP luminescence, 48 h; activity change, negative = growth inhibition: at 46.2 µM (top of the series)
How it was run: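 Cell growth measured by CellTiter-Glo luminescence after a minimum 48 h, 37 C compound exposure with 20 nM CPT in Tdp1-knockout DT40 cells stably expressing hTDP1, seeded 400/well; qHTS titration format.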
% is set by controls: 0 for no effect and ±100 for the full control effect; potency is the fitted concentration of half-maximal effect; tags give direction and shape of the fitted curve.

Structure (SMILES)	Potency	activity change, negative = growth inhibition
CC1CCC/C(=N\NC(=S)Nc2ccccc2)C1 (stereo not drawn)	active: 8.2 µM	–
COc1ccc(-c2nc(C(=O)Nc3cccc(C(C)=O)c3)nn2-c2ccccc2Cl)cc1	active: 18.4 µM	–
CC(C)[C@@H](C(=O)NC1CCN(Cc2ccccc2)CC1)N1C(=O)N2CCc3c([nH]c4ccccc34)[C@@]2(C)C1=O	active: 18.4 µM	–
O=C(CN1CCCCC1)Nc1cccc([N+](=O)[O-])c1	–	inactive: -6.56%
CCOc1ncccc1C(=O)Nc1ccc(C)cn1	inconclusive: 29.1 µM [inhibitor, single point]	–
CC1(C)OC(=O)N(CC(=O)Nc2ccccc2)C1(C)O (stereo not drawn)	inconclusive: 20.6 µM [inhibitor, single point]	–
COCCCNC(=O)c1cc2c(-c3cccc(OC)c3)nn(C)c2s1	inconclusive: 25.9 µM [inhibitor, single point] and inconclusive: 29.1 µM [inhibitor, single point]	–
O=C(CSc1nccn1Cc1ccc(Cl)cc1)Nc1nc2ccccc2s1	inconclusive: 18.4 µM [inhibitor, single point]	–
COc1ccc(N2CCN(C(=O)c3cc4c(=O)n(Cc5ccco5)ccc4nc3C)CC2)cc1	inconclusive: 23.1 µM [inhibitor, single point]	–
CN(C)c1ccc(NC(=O)Oc2ccccc2)cc1	–	inactive: -17%
O=C(NCc1ccccc1Cl)c1ccccc1NC(=O)c1nsc2ccccc12	inconclusive: 18.4 µM [inhibitor, single point]	–
CCCCC[C@H]1CN(Cc2ccccc2)C(=O)[C@@H]1CC(=O)NCc1ccc(OC)cc1	active: 20.6 µM	–
O=C(CCc1nc(-c2ccccc2F)no1)NCCN1CCOCC1	–	inactive: -29.7%
CCOc1ccccc1N1CC(C(=O)N2CCN(Cc3ccc(C#N)cc3)CC2)CC1=O (stereo not drawn)	inconclusive: 25.9 µM [inhibitor, single point]	–
CCc1nc2ccc(C(=O)NCCCN(C)C)cn2c1N(CC)CCOC	–	inactive: 1.52%
CCOc1cc(-c2nc(-c3ccc(-c4ccccc4)nc3OCC)no2)cc(OCC)c1OCC	inconclusive: 16.4 µM [inhibitor, partial curve]	–
CCCCOc1c(Cl)cc(C(=O)N(C)CC(=O)Nc2ccc(N3CCOCC3)cc2)cc1OCC	inconclusive: 25.9 µM [inhibitor, single point]	–
O=C(Cn1cc(/C=N/NC(=O)c2cccc(C(F)(F)F)c2)c2ccccc21)Nc1ccc(F)cc1	inconclusive: 23.1 µM [inhibitor, single point]	–
O=C(CN1C(=O)NC2(CCCC2)C1=O)N1CCc2ccccc2C1	–	inactive: 14.7%
CN(C)c1ccc(/C=C/c2sc3ccccc3[n+]2C)cc1	active: 0.0447 µM	–
Cc1cccc(NS(=O)(=O)c2cccc(C(=O)N3CCN(S(=O)(=O)c4ccccc4)CC3)c2)c1	inconclusive: 25.9 µM [inhibitor, single point]	–
Cc1ccccc1CCNC(=O)c1ccc(Cn2c(=O)c3cccn3c3cccnc32)cc1	inconclusive: 23.1 µM [inhibitor, single point]	–
COc1ccc(S(=O)(=O)N2CCN(C(=O)CN3C(=O)NC(C)(c4ccc5ccccc5c4)C3=O)CC2)cc1 (stereo not drawn)	inconclusive: 18.4 µM [inhibitor, single point]	–

Structure (SMILES)	Potency	activity change, negative = growth inhibition
CC1CN(C2=N/C(=C/c3ccc4c(c3)OCO4)C(=O)N2)CC(C)O1 (stereo not drawn)	–	inactive: -8.88%
CCOC(=O)C1(Cc2cccc(Cl)c2)CCCN(C(=O)C(C)(C)C)C1 (stereo not drawn)	inconclusive: 4.61 µM [inhibitor, single point]	–
COc1ccc(N(CC(=O)NCCSc2ccccn2)S(=O)(=O)c2ccccc2)c(OC)c1	inconclusive: 20.6 µM [inhibitor, single point]	–
O=C(NC1CCCCCC1)C1CCCN(S(=O)(=O)c2cccs2)C1 (stereo not drawn)	inconclusive: 29.1 µM [inhibitor, single point]	–
Cc1noc(C)c1-c1cc(NCc2ccccc2)ncn1	inconclusive: 23.1 µM [inhibitor, single point]	–
CCn1c(=O)cc(OCC(=O)NC(C)c2ccc3c(c2)OCCO3)c2ccccc21 (stereo not drawn)	inconclusive: 20.6 µM [inhibitor, single point]	–
COc1ccccc1Cc1c(-c2cccc(Br)c2)nc2ccc(Cl)cn12	inconclusive: 29.1 µM [inhibitor, single point]	–
O=C(Nc1cccc(Cl)c1Cl)c1csc([C@@H]2O[C@H](CO)[C@@H](O)[C@H]2O)n1	active: 23.1 µM	–
Cc1ccc(C)c(N2CCN(C(=O)c3cc(C)nc4c3c(C)nn4-c3ccccc3)CC2)c1	inconclusive: 29.1 µM [inhibitor, single point]	–
Nc1nc2cc(Cl)c(Br)cc2o1	–	inactive: -0.893%
O=C(Cc1ccccc1)Nc1ccc(-c2nnc(-c3ccco3)o2)cc1	–	inactive: -20%
CCCC(=O)NC(c1cccs1)c1cc(Cl)c2cccnc2c1O (stereo not drawn)	active: 5.17 µM	–
O=C(NNc1c2ccccc2nc2ccccc12)c1ccccc1O	inconclusive: 29.1 µM [inhibitor, single point]	–
O=C(Nc1ccc([N+](=O)[O-])cc1)c1cccc(S(=O)(=O)Nc2cccnc2)c1	–	inactive: -24.9%
COc1cc(-c2cccc([C@H]3[C@@H]4C=CC[C@@H](C)[C@@H]4C(=O)N3Cc3ccccc3)c2)cc(OC)c1OC	active: 8.2 µM	–
CCCc1cc(=O)n2[nH]c(NCc3c(F)cccc3Cl)nc2n1	inconclusive: 20.6 µM [inhibitor, single point]	–
COc1c(C(=O)Nc2nccs2)ccc2ccccc12	inconclusive: 29.1 µM [inhibitor, single point]	–
Cc1ccc(S(=O)(=O)N(C)C)cc1NC(=O)COC(=O)C1CCCC1	–	inactive: -10.2%
CCCc1nnc2n1N=C(c1ccc(C)cc1)CS2	inconclusive: 18.4 µM [inhibitor, single point]	–
CCOC(=O)C(C)c1nn(C)c(=O)c2ccccc12 (stereo not drawn)	inconclusive: 16.4 µM [inhibitor, partial curve]	–
CCC(C)(C)NC(=O)C(c1cccn1C)N(C(=O)Cn1nnc2ccccc21)c1ccccc1OC (stereo not drawn)	inconclusive: 23.1 µM [inhibitor, single point]	–
CC(OC(=O)c1ccc(O)cc1)C(=O)Nc1cc(C(F)(F)F)ccc1Cl (stereo not drawn)	inconclusive: 29.1 µM [inhibitor, single point]	–
Cc1nc2cc(-c3cccc(F)c3)nn2c(C)c1CCC(=O)NCCc1ccccc1	active: 25.9 µM	–

Structure (SMILES)	Potency	activity change, negative = growth inhibition
COc1ccc(N2CCN(S(=O)(=O)c3ccc4c(c3)C(C(C)C)C(=O)N4)CC2)cc1 (stereo not drawn)	active: 18.4 µM	–
CSCCn1c(C(C)(C)C)cc(C(=O)O)c1C	–	inactive: 15%
Cn1nc(C(=O)NCC2COc3ccccc3O2)c2ccccc2c1=O (stereo not drawn)	active: 23.1 µM	–
Cc1cccc(NC(=O)CSc2nnc(CN3CCOCC3)n2C)c1C	inconclusive: 3.26 µM [inhibitor, single point]	–
Nc1nc(CCl)nc(Nc2cccc3ccccc23)n1	inconclusive: 4.61 µM [inhibitor, full curve, poor fit]	–
O=C(Nc1ccc(-c2ccco2)cc1)C1CCCN(Cc2ccc(CO)o2)C1 (stereo not drawn)	inconclusive: 29.1 µM [inhibitor, single point]	–
Cc1ccc(S(=O)(=O)N2CCN(C(C)C(=O)NCC(C)c3ccccc3)CC2)cc1 (stereo not drawn)	inconclusive: 16.4 µM [inhibitor, partial curve]	–
O=C1CSC(c2cn(-c3ccccc3)nc2-c2ccccc2)N1Cc1ccco1 (stereo not drawn)	inconclusive: 29.1 µM [inhibitor, single point]	–
Cc1ccccc1-n1c(SCC(=O)N2CCOCC2)nc(O)c(Cc2ccccc2)c1=O	–	inactive: -3.86%
Cn1c(=O)c2sccc2n2c(CCCC(=O)Nc3ccc(Oc4ccccc4)cc3)nnc12	inconclusive: 20.6 µM [inhibitor, single point]	–
Cc1ccc(C)c(-n2[nH]c3c4c(ccc3c2=O)C(=O)c2ccccc2C4=O)c1	inconclusive: 25.9 µM [inhibitor, single point]	–
C#Cc1ccc([C@@H]2C=C(C(=O)OCC=C)O[C@H](OCc3ccc(CO)cc3)C2)cc1	–	inactive: -20.1%
CCOC(=O)Oc1c(OC)cc(C(=O)O[C@@H]2C[C@@H]3CN4CCc5c([nH]c6cc(OC)ccc56)[C@H]4C[C@@H]3[C@H](C(=O)OC)[C@H]2OC)cc1OC	active: 8.05 µM and active: 23.1 µM	–
Cn1c(SCC(=O)N/N=C/C=C/c2ccccc2[N+](=O)[O-])nc2ccccc21	–	inactive: -5.04%
CN(CC(=O)Nc1cccc(F)c1)C(=O)c1sc2ccccc2c1Cl	–	inactive: -27.6%
O=C(NCc1ccccc1)C(c1ccccc1)n1c(=O)c(-c2ccco2)nc2ccccc21 (stereo not drawn)	inconclusive: 18.4 µM [inhibitor, single point]	–
CCNC(=O)C1(C)CCCN(Cc2csc(-c3ccccc3)n2)C1 (stereo not drawn)	inconclusive: 29.1 µM [inhibitor, single point]	–
COc1ccccc1/C=N/NC(=O)c1nnn(-c2nonc2N)c1-c1ccccc1	–	inactive: -25.4%
Nc1ccc2nc3c(c(Cl)c2c1)CCCC3	–	inactive: -8.03%
O=C(c1cc2n(n1)C(C(F)(F)F)CC(c1ccc(Cl)cc1)N2)N1CCCC1 (stereo not drawn)	inconclusive: 11.6 µM [inhibitor, partial curve]	–
Cc1ccc(-c2n[nH]c(=S)nc2-c2ccc(C)cc2)cc1	inconclusive: 25.9 µM [inhibitor, single point]	–
Cc1ccc(C)c(NC(=O)C2CCN(S(=O)(=O)c3c(C)noc3/C=C/c3cccs3)CC2)c1	inconclusive: 13 µM [inhibitor, partial curve, poor fit]	–
